The IC50 comes from the fitted curve, where viability falls to half of the control; a limit (>, <) means that the fit lies beyond the doses tested. AUC is the area under the same curve over the 256-fold range up to the top dose, as a fraction; it is 1 without any effect and falls as sensitivity rises. For part of these data: An inferred top dose was derived from the fitted curves, not read from the paper. For part of these data: Drugs with an entry number were screened twice under separate entries, and the two screens often disagree.
Tests used:
Assay in all cases: Viability of human cancer cell lines after 72 h of drug (GDSC screen)
CGP-60474 = compound: OCCCNc1cc(-c2ccnc(Nc3cccc(Cl)c3)n2)ccn1 [CGP-60474]; details: top dose 0.256 µM; top dose inferred
Method: (§1)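 Human cancer cell lines in 384-well plates, medium with 10% serum, drug for 72 h over a 256-fold dose range (nine 2-fold or five 4-fold steps up to the top dose). Adherent lines were fixed and stained with the nucleic acid dye Syto60, suspension lines read with resazurin; signal relative to control wells, capped at 0 and 100%. One two-parameter sigmoid per drug and line, fitted in a mixed model over all curves with the slope shared within a line.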

YM155 = compound: COCC[n+]1c2c(n(Cc3cnccn3)c1C)C(=O)c1ccccc1C2=O [YM155]; details: top dose 5.12 µM
Method: as §1

Cyclopamine = compound: CC1=C2C[C@H]3[C@@H](CC=C4C[C@@H](O)CC[C@@]43C)[C@@H]2CC[C@]12O[C@@H]1C[C@H](C)CN[C@H]1[C@H]2C [Cyclopamine]; details: top dose 16 µM; top dose inferred
Method: as §1

NSC-207895 = compound: CN1CCN(c2ccc([N+](=O)[O-])c3no[n+]([O-])c23)CC1 [NSC-207895]; details: top dose 20 µM; top dose inferred
Method: as §1

JNK Inhibitor VIII = compound: CCOc1nc(NC(=O)Cc2cc(OC)ccc2OC)cc(N)c1C#N [JNK Inhibitor VIII]; details: top dose 10 µM; top dose inferred
Method: as §1

Belinostat = compound: O=C(/C=C/c1cccc(S(=O)(=O)Nc2ccccc2)c1)NO [Belinostat]; details: top dose 20 µM; top dose inferred
Method: as §1

JQ1 = compound: Cc1sc2c(c1C)C(c1ccc(Cl)cc1)=N[C@@H](CC(=O)OC(C)(C)C)c1nnc(C)n1-2 [JQ1]
Method: as §1

AMG-706 = compound: CC1(C)CNc2cc(NC(=O)c3cccnc3NCc3ccncc3)ccc21 [AMG-706]; details: top dose 2 µM; top dose inferred
Method: as §1

FTI-277 = compound: COC(=O)[C@H](CCSC)NC(=O)c1ccc(NC[C@@H](N)CS)cc1-c1ccccc1 [FTI-277]; details: top dose 1.024 µM; top dose inferred
Method: as §1

JNJ-26854165 = compound: c1ccc2c(CCNc3ccc(Nc4ccncc4)cc3)c[nH]c2c1 [JNJ-26854165]; details: top dose 10 µM
Method: as §1

SB-715992 = compound: Cc1ccc(C(=O)N(CCCN)[C@@H](c2nc3cc(Cl)ccc3c(=O)n2Cc2ccccc2)C(C)C)cc1 [SB-715992]; details: top dose 0.128 µM; top dose inferred
Method: as §1

OSI-906 = compound: C[C@]1(O)C[C@@H](c2nc(-c3ccc4ccc(-c5ccccc5)nc4c3)c3c(N)nccn32)C1 [OSI-906]; details: top dose 2.56 µM; top dose inferred
Method: as §1

[1] = top dose 1 µM, screen: GDSC drug entry 1218, top dose inferred
[2] = top dose 2.56 µM, screen: GDSC drug entry 163

Row | Cell Line | AUC (CGP-60474) | IC50 (CGP-60474) | AUC (YM155) | IC50 (YM155) | AUC (Cyclopamine) | IC50 (Cyclopamine) | AUC (NSC-207895) | IC50 (NSC-207895) | AUC (JNK Inhibitor VIII) | IC50 (JNK Inhibitor VIII) | AUC (Belinostat) | IC50 (Belinostat) | AUC (JQ1; [1]) | IC50 (JQ1; [1]) | AUC (JQ1; [2]) | IC50 (JQ1; [2]) | AUC (AMG-706) | IC50 (AMG-706) | AUC (FTI-277) | IC50 (FTI-277) | AUC (JNJ-26854165) | IC50 (JNJ-26854165) | AUC (SB-715992) | IC50 (SB-715992) | AUC (OSI-906) | IC50 (OSI-906)
1 | HT-144 (melanoma, adherent) | 0.533 | 19.9 nM | 0.772 | 2210 nM | 0.964 | > 16000 nM | 0.969 | > 20000 nM | 0.939 | > 10000 nM | 0.983 | > 20000 nM | 0.953 | > 1000 nM | 0.652 | 445 nM | 0.923 | > 2000 nM | 0.939 | > 1020 nM | 0.87 | > 10000 nM | 0.979 | > 128 nM |  | 
2 | Hs-445 (Hodgkin lymphoma, suspension) | 0.746 | 75.8 nM | 0.031 | < 20 nM | 0.988 | > 16000 nM | 0.94 | > 20000 nM |  |  | 0.299 | 357 nM | 0.985 | > 1000 nM | 0.817 | 1300 nM |  |  | 0.987 | > 1020 nM |  |  | 0.502 | 8.12 nM | 0.989 | > 2560 nM
3 | MDST8 (large intestine, adherent) | 0.908 | > 256 nM |  |  | 0.987 | > 16000 nM | 0.763 | 7130 nM | 0.987 | > 10000 nM |  |  | 0.986 | > 1000 nM | 0.973 | > 2560 nM | 0.95 | > 2000 nM | 0.972 | > 1020 nM | 0.813 | 5360 nM | 0.92 | > 128 nM | 0.974 | > 2560 nM
4 | NCI-H82 (small cell lung carcinoma, suspension) | 0.845 | 170 nM | 0.031 | < 20 nM | 0.959 | > 16000 nM | 0.665 | 3500 nM | 0.988 | > 10000 nM |  |  | 0.988 | > 1000 nM | 0.968 | > 2560 nM | 0.981 | > 2000 nM | 0.989 | > 1020 nM | 0.925 | > 10000 nM | 0.827 | 72.8 nM | 0.988 | > 2560 nM
5 | NCI-H1666 (lung adenocarcinoma, semi-adherent) | 0.982 | > 256 nM | 0.067 | < 20 nM | 0.985 | > 16000 nM | 0.987 | > 20000 nM |  |  | 0.485 | 1130 nM | 0.955 | > 1000 nM | 0.951 | > 2560 nM |  |  | 0.986 | > 1020 nM | 0.951 | > 10000 nM | 0.948 | > 128 nM | 0.986 | > 2560 nM
6 | NCI-H2171 (small cell lung carcinoma, suspension) | 0.9 | 252 nM | 0.019 | < 20 nM | 0.991 | > 16000 nM | 0.808 | 8730 nM |  |  | 0.336 | 468 nM |  |  | 0.96 | > 2560 nM |  |  | 0.988 | > 1020 nM |  |  | 0.584 | 13.2 nM | 0.858 | 1670 nM
7 | NCI-H2196 (small cell lung carcinoma, adherent) | 0.894 | > 256 nM | 0.077 | < 20 nM | 0.986 | > 16000 nM | 0.817 | 11900 nM |  |  | 0.321 | 384 nM |  |  | 0.967 | > 2560 nM |  |  | 0.984 | > 1020 nM |  |  | 0.89 | > 128 nM | 0.984 | > 2560 nM
8 | NOMO-1 (acute myeloid leukaemia, suspension) | 0.777 | 118 nM | 0.119 | < 20 nM | 0.968 | > 16000 nM | 0.806 | 11900 nM | 0.974 | > 10000 nM | 0.37 | 520 nM |  |  |  |  | 0.982 | > 2000 nM | 0.982 | > 1020 nM | 0.845 | 8770 nM | 0.667 | 25 nM | 0.919 | > 2560 nM
9 | ONS-76 (medulloblastoma, adherent) | 0.72 | 71.3 nM | 0.267 | 65.4 nM | 0.982 | > 16000 nM | 0.978 | > 20000 nM | 0.952 | > 10000 nM |  |  | 0.964 | > 1000 nM | 0.626 | 367 nM | 0.943 | > 2000 nM | 0.823 | 668 nM | 0.9 | > 10000 nM | 0.83 | 89.4 nM | 0.984 | > 2560 nM
10 | SU-DHL-1 (anaplastic large cell lymphoma, suspension) | 0.791 | 82 nM | 0.009 | < 20 nM | 0.993 | > 16000 nM | 0.939 | 17600 nM |  |  | 0.518 | 1380 nM |  |  | 0.997 | > 2560 nM |  |  | 0.997 | > 1020 nM |  |  | 0.994 | > 128 nM | 0.997 | > 2560 nM
11 | TALL-1 (T-cell lymphoblastic leukaemia, suspension) | 0.772 |  | 0.056 | < 20 nM | 0.984 | > 16000 nM | 0.986 | > 20000 nM |  |  | 0.391 | 637 nM |  |  | 0.99 | > 2560 nM |  |  | 0.99 | > 1020 nM |  |  | 0.972 | > 128 nM | 0.99 | > 2560 nM
12 | THP-1 (acute myeloid leukaemia, suspension) | 0.915 | > 256 nM | 0.064 | < 20 nM | 0.974 | > 16000 nM | 0.9 | > 20000 nM | 0.988 | > 10000 nM |  |  |  |  |  |  | 0.99 | > 2000 nM | 0.981 | > 1020 nM | 0.976 | > 10000 nM | 0.832 | 70.9 nM | 0.991 | > 2560 nM

Source: the supplement of paper PMC4967469
